Laboratory results published in the antibiotic and cytotoxicity screens of Wong et al. (2023).
Some of the results follow.

Columns and labels:
HSkMC = human skeletal muscle cells; assay: cytotoxicity call (relative viability < 0.9); details: 10 µM
HepG2 = assay: cytotoxicity call (relative viability < 0.9); details: 10 µM
S. aureus RN4220 = assay: growth inhibition call (relative growth <= 0.2); details: 50 µM

SMILES	cytotoxicity call (HSkMC)	cytotoxicity call (HepG2)	growth inhibition call (S. aureus RN4220)
COc1ccc(NC(=O)Nc2ccc3c(c2)C(=O)N([C@@H](C)CO)C[C@@H](C)[C@H](CN(C)Cc2ccc(Cl)c(Cl)c2)OCCCC[C@H](C)O3)cc1	inactive	inactive	inactive
O=C(N[C@@H](c1ccccc1)c1ccc2ccccc2n1)C1CCN(CCOc2ccc(Cl)cc2Cl)CC1	inactive	inactive	inactive
C[C@H]1CN([C@@H](C)CO)C(=O)c2cc(NS(=O)(=O)c3cn(C)cn3)ccc2O[C@H]1CN(C)C(=O)NC1CCCCC1	inactive	inactive	inactive
O=C(O)CCc1n[nH]c(=O)[nH]c1=O	inactive	inactive	inactive
C[C@H](CO)N1C[C@H](C)[C@H](CN(C)S(=O)(=O)c2ccc(F)cc2)Oc2ccc(NC(=O)Nc3ccc(C(F)(F)F)cc3)cc2C1=O	active	inactive	inactive
CC(C)CNC(=O)CSc1nnc[nH]1	inactive	inactive	inactive
CC(C)NC(=O)Nc1ccc2c(c1)C(=O)N([C@@H](C)CO)C[C@H](C)[C@@H](CN(C)Cc1ccccc1)OCCCC[C@@H](C)O2	inactive	inactive	inactive
NC(Cc1ccc(O)c(O)c1)C(=O)O (stereo not drawn)	inactive	active	inactive
CN1CCN(c2nc3c(c(=O)[nH]c(=O)n3C)n2CC(=O)c2ccc(Cl)cc2)CC1	inactive	inactive	inactive
C[C@@H]1CN(CCO)C(=O)c2cc(NC(=O)Nc3ccccc3)ccc2O[C@@H](C)CCCCO[C@H]1CN(C)S(=O)(=O)c1ccc(F)cc1	inactive	inactive	inactive
O=C(O)c1cc2sccc2s1	inactive	inactive	inactive
Cc1noc(C)c1NC(=O)N(C)C[C@H]1Oc2c(NS(=O)(=O)c3ccccc3)cccc2C(=O)N([C@H](C)CO)C[C@H]1C	inactive	inactive	inactive
C[C@@H]1CN([C@@H](C)CO)C(=O)Cc2cc(NC(=O)CCC(F)(F)F)ccc2O[C@@H]1CN(C)S(=O)(=O)c1ccccc1	inactive	active	inactive
C[C@H]1CCCCO[C@@H](CN(C)Cc2ccc(C(F)(F)F)cc2)[C@@H](C)CN([C@@H](C)CO)C(=O)c2cc(N(C)C)ccc2O1	inactive	inactive	inactive
CC(C)NC(=O)N(C)C[C@H]1Oc2ccc(NS(=O)(=O)c3ccc(Cl)cc3)cc2CC(=O)N([C@@H](C)CO)C[C@@H]1C	inactive	inactive	inactive
CC[C@@H](N)Cn1c(=O)oc2ccccc21	inactive	inactive	inactive
C[C@H]1CN([C@@H](C)CO)C(=O)c2ccccc2-c2ccccc2CO[C@H]1CN(C)S(=O)(=O)c1cn(C)cn1	inactive	inactive	inactive
CCN(CC)c1ccc(N2CC=C[C@@]34O[C@@H]5C=CCOC(=O)[C@@H]5[C@H]3C(=O)N(CCCCCO)[C@@H]4C2=O)cc1	inactive	inactive	inactive
COCC(=O)Nc1ccc2c(c1)C(=O)N(C)C[C@H](OC)[C@@H](C)CN(Cc1ccccc1OC)[C@@H](C)CO2	inactive	inactive	inactive

SMILES	cytotoxicity call (HSkMC)	cytotoxicity call (HepG2)	growth inhibition call (S. aureus RN4220)
Cc1ccc(S(=O)(=O)Nc2cccc3c2O[C@H](CN(C)CC2CC2)[C@@H](C)CN([C@H](C)CO)C3=O)cc1	inactive	inactive	inactive
CCS(=O)(=O)Nc1ccc2c(c1)C(=O)N(C)[C@H]1CC[C@@H](CC(=O)NCc3ccc(OC)cc3)O[C@H]1CO2	inactive	inactive	inactive
CN(C)c1nc(Oc2ccc(=O)n(C)n2)nc(N(C)C)n1	inactive	inactive	inactive
COc1ccc(NC(=O)Nc2cccc3c2O[C@H](CN(C)Cc2ccc(C(=O)Nc4ccccc4N)cc2)[C@@H](C)CN([C@@H](C)CO)C3=O)cc1	inactive	inactive	inactive
C[C@@H]1CCCCO[C@@H](CN(C)C(=O)Nc2cccc3ccccc23)[C@H](C)CN([C@H](C)CO)C(=O)c2cc(NC(=O)Nc3ccccc3)ccc2O1	inactive	inactive	inactive
C=CCOC(=O)[C@H]1[C@@H]2C(=O)O[C@@H](c3ccccc3)[C@@H](c3ccccc3)N2[C@@H](c2ccc(OCCOC(=O)[C@@H]3C[C@@H]4C(=O)N[C@@H](CCCCNC(C)=O)C(=O)N4[C@@H]3c3cccc(OCCO)c3)cc2)[C@]12C(=O)Nc1ccc(I)cc12	inactive	inactive	inactive
C[C@@H]1CN([C@H](C)CO)C(=O)Cc2cc(NC(=O)Nc3ccc4c(c3)OCO4)ccc2O[C@@H]1CN(C)Cc1ccc(Oc2ccccc2)cc1	inactive	active	inactive
COc1ccc(NC(=O)N(C)C[C@H]2OCCCC[C@@H](C)Oc3ccc(NC(=O)Cc4ccccc4)cc3C(=O)N([C@@H](C)CO)C[C@@H]2C)cc1	inactive	inactive	inactive
C[C@@H]1CN([C@@H](C)CO)C(=O)c2cccc(NS(=O)(=O)c3ccccc3)c2O[C@H]1CN(C)CC1CC1	inactive	inactive	inactive
C[C@H](CO)N1C[C@H](C)[C@H](CN(C)S(=O)(=O)c2ccccc2)Oc2ccc(NS(=O)(=O)c3ccccc3)cc2C1=O	inactive	inactive	inactive
C[C@@H]1CN([C@H](C)CO)C(=O)c2cc(NC(=O)Nc3ccc(C(F)(F)F)cc3)ccc2O[C@@H](C)CCCCO[C@H]1CN(C)C(=O)NC1CCCCC1	inactive	inactive	inactive
CCOC(=O)c1cnc[nH]1	inactive	inactive	inactive
C[C@@H]1CCCCO[C@H](CN(C)CC2CCCCC2)[C@H](C)CN([C@@H](C)CO)C(=O)c2cc(NS(=O)(=O)c3ccc(Cl)cc3)ccc2O1	active	active	inactive
O=C(C[C@@H]1CC[C@@H]2[C@H](COC[C@@H](O)CN2S(=O)(=O)c2cccc(Cl)c2)O1)NCc1ccc2c(c1)OCO2	inactive	inactive	inactive
C[C@H]1CN([C@@H](C)CO)C(=O)Cc2cc(NS(C)(=O)=O)ccc2O[C@H]1CN(C)S(=O)(=O)c1ccc(F)cc1	inactive	inactive	inactive
CCOC(=O)Nc1nc2ccccc2[nH]1	inactive	inactive	inactive
CN(C)CCCNC(=O)[C@H]1[C@H](CO)[C@H]2Cn3c(ccc(-c4cccc(C(=O)N(C)C)c4)c3=O)[C@@H]1N2	inactive	inactive	inactive
C[C@H]1CN([C@@H](C)CO)C(=O)c2cc(NS(C)(=O)=O)ccc2O[C@H]1CN(C)C(=O)Nc1ccc2c(c1)OCO2	inactive	inactive	inactive
C[C@@H]1CN([C@@H](C)CO)C(=O)c2cccc(NC(=O)C3CCOCC3)c2O[C@H]1CN(C)S(=O)(=O)c1ccccc1	inactive	inactive	inactive

SMILES	cytotoxicity call (HSkMC)	cytotoxicity call (HepG2)	growth inhibition call (S. aureus RN4220)
C[C@H]1CN([C@@H](C)CO)C(=O)c2cc(NC(=O)Cn3cnnn3)ccc2O[C@@H]1CN(C)C(=O)Nc1ccc(F)cc1	inactive	inactive	inactive
Cc1noc(C)c1S(=O)(=O)Nc1cccc2c1O[C@@H](CN(C)S(=O)(=O)c1cn(C)cn1)[C@@H](C)CN([C@@H](C)CO)C2=O	inactive	inactive	inactive
C[C@@H]1CN([C@@H](C)CO)C(=O)c2cc(NC(=O)Nc3ccc(C(F)(F)F)cc3)ccc2O[C@@H](C)CCCCO[C@H]1CN(C)S(=O)(=O)c1ccc(Cl)cc1	inactive	inactive	inactive
COc1ccc(NC(=O)N(C)C[C@H]2OCc3cnnn3CCCC(=O)N([C@@H](C)CO)C[C@H]2C)c(OC)c1	inactive	inactive	inactive
C[C@H]1CCCCO[C@H](CN(C)Cc2ccccc2)[C@@H](C)CN([C@@H](C)CO)C(=O)c2cc(NC(=O)Nc3ccc4c(c3)OCO4)ccc2O1	inactive	inactive	inactive
C[C@@H]1CN([C@@H](C)CO)C(=O)c2cc(NS(=O)(=O)c3cn(C)cn3)ccc2O[C@H]1CN(C)Cc1ccccc1	inactive	inactive	inactive
C[C@H](CO)N1C[C@H](C)[C@H](CN(C)C(=O)C2CCCCC2)OCCCC[C@H](C)Oc2ccc(NS(=O)(=O)c3ccc(Cl)cc3)cc2C1=O	inactive	inactive	inactive
CCCNC(=O)N1C[C@H](O)COC[C@H]2O[C@H](CC(=O)N3CCOCC3)CC[C@@H]21	inactive	inactive	inactive
Cc1noc(C)c1NC(=O)Nc1ccc2c(c1)C(=O)N([C@@H](C)CO)C[C@@H](C)[C@H](CN(C)Cc1ccc(Cl)c(Cl)c1)O2	inactive	inactive	inactive
COc1ccc(S(=O)(=O)Nc2cccc3c2O[C@@H](CN(C)S(=O)(=O)c2ccc(C)cc2)[C@@H](C)CN([C@@H](C)CO)C3=O)cc1	inactive	inactive	inactive
Cc1n[nH]c(=S)n1N	inactive	inactive	inactive
Cc1cn(C2C=CC(CO)O2)c(=O)[nH]c1=O (stereo not drawn)	inactive	inactive	inactive
Cc1ccc(S(=O)(=O)N(C)C[C@H]2OCCCC[C@H](C)Oc3ccc(NC(=O)C4CCCCC4)cc3C(=O)N([C@H](C)CO)C[C@@H]2C)cc1	inactive	inactive	inactive
O=S(=O)(NCC[C@H]1CC[C@H](NS(=O)(=O)c2cccc(Cl)c2)[C@@H](CO)O1)c1cccc(F)c1	inactive	inactive	inactive
O=C1CCCNCC1	inactive	inactive	inactive
O=C1O[C@H](c2ccccc2)[C@H](c2ccccc2)N2[C@H]1[C@@H](C(=O)Nc1nc3ccccc3s1)[C@]1(C(=O)Nc3ccccc31)[C@H]2c1ccc(OCCO)cc1	inactive	inactive	inactive
C[C@H]1CN([C@@H](C)CO)C(=O)Cc2cc(NC(=O)Cn3cnnn3)ccc2O[C@@H]1CN(C)Cc1ccc(C(=O)Nc2ccccc2N)cc1	inactive	inactive	inactive
C[C@@H]1CN([C@@H](C)CO)C(=O)c2cc(NS(=O)(=O)c3cn(C)cn3)ccc2O[C@@H]1CN(C)Cc1ccccc1	inactive	inactive	inactive
